Measured values published in the supplement of paper PMC10126150.
Sequences with one replicate were seen in a single cluster, so their values are uncertain.
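Note: ATP exposure 15 min at 22 °C before imaging.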

What follows are sequences tested on ATP (assay: switch fluorescence ratio, 500 uM ATP over buffer (Cy3 cluster intensity, sum of 5 cycles each) (fold (ratio)); higher = stronger signal-on switching upon ATP binding; sequences stand for … in TCGTCGGCAGCGTCAGATGTGTATAAGAGACAGTTTTTTTTTTTTTTTTTTTTTTTTT…TC). Conditions: aptamer strand: ATP DNA aptamer (quencher-CACCTGGGGGAGTATTGCGGAGGAAGG + anchor), 100 nM annealed; ATP concentration: 500 uM; one replicate.
Method in brief: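 Between each of five buffer/ATP cycles, the flow-cell was stripped with NaOH and re-annealed. Each cycle imaged Cy3-labelled switching-strand clusters, annealed to 100 nM quencher-labelled ATP aptamer on a modified Illumina MiSeq flow-cell, first in selection buffer and then after 15 min with 500 uM ATP at 22 °C. The fluorescence ratio is summed target-cycle over summed buffer-cycle Cy3 intensity per cluster, averaged per switch-domain sequence, with clusters outside 100-1000 RFU excluded.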
CTCGAAACGT showed a switch fluorescence ratio of 1.08. CTCGAAAGGG showed a switch fluorescence ratio of 1.02. CTCGAACAGT showed a switch fluorescence ratio of 1.04. Sequence CTCGAAGCCG has a switch fluorescence ratio of 1.05. CTCGAAGCGT showed a switch fluorescence ratio of 1.07. CTCGAATTC showed a switch fluorescence ratio of 1.12. Work on CTCGACTGCA yielded a switch fluorescence ratio of 1.35. Sequence CTCGAGGGTT has a switch fluorescence ratio of 1.05. For CTCGATACTT, the switch fluorescence ratio was 1.08. CTCGATCGTG gave a switch fluorescence ratio of 1.01. For CTCGATGAAG, the switch fluorescence ratio was 0.998. With CTCGATGTTG the switch fluorescence ratio was 0.948. CTCGCACTC showed a switch fluorescence ratio of 3.74. Work on CTCGCATTTT yielded a switch fluorescence ratio of 1.36. For CTCGCGCGGC, the switch fluorescence ratio was 1.49. In the case of CTCGCTATG, the switch fluorescence ratio is reported as 1.11. CTCGGATAGA showed a switch fluorescence ratio of 0.988. Work on CTCGGCACGC yielded a switch fluorescence ratio of 2.89. For CTCGGGAGAC, the switch fluorescence ratio was 1.59. For CTCGGGAGGG, the switch fluorescence ratio was 1.01. Work on CTCGGTGATA yielded a switch fluorescence ratio of 1.08. CTCGGTTGAG gave a switch fluorescence ratio of 1.17. CTCGTCCTAG gave a switch fluorescence ratio of 1.04. Work on CTCGTCTACT yielded a switch fluorescence ratio of 1.08. Work on CTCGTGTGGT yielded a switch fluorescence ratio of 0.978. CTCGTTCGCT gave a switch fluorescence ratio of 1.08. Sequence CTCTATGCCT has a switch fluorescence ratio of 1.03. Work on CTCTATGTAG yielded a switch fluorescence ratio of 1.04. CTCTCACCAA gave a switch fluorescence ratio of 1.37. With CTCTCAGTAG the switch fluorescence ratio was 1.21. CTCTCGACGG was tested, and the switch fluorescence ratio was 1.03. With CTCTCGCGGT the switch fluorescence ratio was 2.01. CTCTCGGCG was tested, and the switch fluorescence ratio was 1.03. For CTCTCGTAGT, the switch fluorescence ratio was 0.987. CTCTCGTTGG was tested, and the switch fluorescence ratio was 0.943. Sequence CTCTCTTTTT has a switch fluorescence ratio of 0.984. For CTCTGAAACC, the switch fluorescence ratio was 1.12. Work on CTCTGAGGG yielded a switch fluorescence ratio of 1.45. CTCTGCCGAC showed a switch fluorescence ratio of 2.77. In the case of CTCTGCGGCA, the switch fluorescence ratio is reported as 1.66. Sequence CTCTGCTAAG has a switch fluorescence ratio of 1.51. With CTCTGGGGTG the switch fluorescence ratio was 1.06. CTCTGGGGTT was tested, and the switch fluorescence ratio was 0.943. In the case of CTCTGGTTCG, the switch fluorescence ratio is reported as 0.989. CTCTGTGTGC was tested, and the switch fluorescence ratio was 2.14. CTCTTACGCG showed a switch fluorescence ratio of 0.984. CTCTTATGAT was tested, and the switch fluorescence ratio was 0.975. In the case of CTCTTCCTGG, the switch fluorescence ratio is reported as 1.28. In the case of CTCTTTGTAA, the switch fluorescence ratio is reported as 1.06. Work on CTGAAAAAGA yielded a switch fluorescence ratio of 1.01. With CTGAAACGCT the switch fluorescence ratio was 1.15. Sequence CTGAAAGCAC has a switch fluorescence ratio of 1.77. CTGAACATCC showed a switch fluorescence ratio of 1.11. CTGAAGTGT gave a switch fluorescence ratio of 0.961. CTGACATAGC was tested, and the switch fluorescence ratio was 2.03. CTGACCCCTG gave a switch fluorescence ratio of 0.958. CTGACGCCTT showed a switch fluorescence ratio of 2.63. For CTGACGTTG, the switch fluorescence ratio was 1.04. CTGACTAGGC showed a switch fluorescence ratio of 1.09. Sequence CTGACTGAAG has a switch fluorescence ratio of 0.984. CTGAGAAACG gave a switch fluorescence ratio of 1.01. CTGAGACATG was tested, and the switch fluorescence ratio was 0.993. CTGAGAGCTC gave a switch fluorescence ratio of 0.977. In the case of CTGAGCAGTG, the switch fluorescence ratio is reported as 1.04. Sequence CTGAGGCAGC has a switch fluorescence ratio of 1.9. For CTGAGGTTCT, the switch fluorescence ratio was 1.05. CTGAGTAGGT gave a switch fluorescence ratio of 0.98. In the case of CTGATAAGGA, the switch fluorescence ratio is reported as 0.979. With CTGATAATGT the switch fluorescence ratio was 1.05. CTGATACTT gave a switch fluorescence ratio of 1.13. Sequence CTGATAGCGG has a switch fluorescence ratio of 1.19. With CTGATATGCA the switch fluorescence ratio was 0.982. CTGATCTTTT showed a switch fluorescence ratio of 0.986. Sequence CTGATGCTGT has a switch fluorescence ratio of 1.12. Sequence CTGCAAAAG has a switch fluorescence ratio of 1.06. CTGCAAATGA showed a switch fluorescence ratio of 1.52. CTGCAGATGA showed a switch fluorescence ratio of 1.04.
